{"source": "PubChem BioAssay AID2675", "about": "(National Center for Advancing Translational Sciences (NCATS), 2010)", "note": "In all, about 280,000 compounds went through this assay and about 100 (0.036%) were called active. The shares of active, inactive and inconclusive entries below differ from those in the screen. Calls come from the whole dose curve; as a rule, active = well fitted inhibition curve with a large enough effect in the signal ratio, with a control signal flat (not every such curve was filed as active); inconclusive = small, poorly fitted or top-dose-only effect, or effect the other way, or a change in a side signal; inactive = no such curve, though single readings can be large or run the other way; the % refers to the signal ratio. Potencies of inconclusive entries are doubtful fits and often do not repeat. A note “side channel” means that the fit belongs to a control or component signal, not to the main read-out. Potency is the fitted concentration of half-maximal effect; tags give direction and shape of the fitted curve or compound fluorescence and quenching."}
{"molecular_target": "Muscleblind-like protein 1 (Homo sapiens) (UniProt Q9NR56)", "sequence (Q9NR56 whole entry, looked up)": "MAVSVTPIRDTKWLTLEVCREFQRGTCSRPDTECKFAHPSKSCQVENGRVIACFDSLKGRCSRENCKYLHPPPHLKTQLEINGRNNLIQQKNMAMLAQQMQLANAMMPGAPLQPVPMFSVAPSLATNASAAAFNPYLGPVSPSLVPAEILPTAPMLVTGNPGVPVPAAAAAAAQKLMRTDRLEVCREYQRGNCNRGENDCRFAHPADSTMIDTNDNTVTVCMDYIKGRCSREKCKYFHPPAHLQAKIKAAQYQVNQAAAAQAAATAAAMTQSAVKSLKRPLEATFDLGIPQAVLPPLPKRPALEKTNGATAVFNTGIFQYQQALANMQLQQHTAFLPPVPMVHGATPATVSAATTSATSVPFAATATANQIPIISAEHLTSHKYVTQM", "assay": "qHTS Assay for Inhibitors of MBNL1-poly(CUG) RNA binding", "conditions": "TR-FRET MBNL1-His/biotin-(CUG)12 binding, 665/545 ratio; series mostly up to 57.5 µM", "how_it_was_run": "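TR-FRET readout: Ex 340 nm, 665/545 nm emission ratio, normalized to buffer-only (basal) and MBNL1-(CUG)12 controls. Complex of MBNL1-His with Biotin-(CUG)12, compounds 92 nM–58 uM, incubated 60 min at room temperature.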"}
{"smiles": "COc1ccc(C2C(C(=O)c3cccs3)=C(O)C(=O)N2c2nnc(C)s2)cc1OC", "note": "(centres undefined)", "Potency": "inconclusive: 35.5 µM [quencher, side channel, single point]"}
{"smiles": "N#CCCn1cc(CNCc2ccccc2)c(-c2cccc([N+](=O)[O-])c2)n1", "Potency": "inconclusive: 17.8 µM [quencher, side channel, partial curve]"}
{"smiles": "O=C(Nc1cccc(NC(=O)c2ccccc2[N+](=O)[O-])n1)c1ccccc1[N+](=O)[O-]", "Potency": "inconclusive: 11.2 µM [quencher, side channel, partial curve]"}
{"smiles": "O=C(NNC(=O)c1ccc(Cl)cc1Cl)Nc1ccccc1", "Potency": "inconclusive: 10 µM [fluorescent, side channel, partial curve, poor fit]"}
{"smiles": "O=C(COC(=O)c1ccccc1C(=O)c1ccccc1)Nc1cccc([N+](=O)[O-])c1", "Potency": "inconclusive: 28.2 µM [quencher, side channel, single point]"}
{"smiles": "COc1cc(NC(=O)C2=CC(c3ccco3)=NS(=O)(=O)N2C)cc(OC)c1OC", "Potency": "inconclusive: 11.2 µM [quencher, side channel, partial curve]"}
{"smiles": "CCOC(=O)CNc1ncc([N+](=O)[O-])cc1C#N", "Potency": "inconclusive: 14.1 µM [quencher, side channel, partial curve]"}
{"smiles": "COc1ccccc1/C=C/C=N/NC(=O)c1cc(-c2ccc(C)o2)[nH]n1", "Potency": "inconclusive: 31.6 µM [quencher, side channel, single point]"}
{"smiles": "Clc1ccc(Oc2nc3ccccc3n3cccc23)cc1", "Potency": "inconclusive: 10 µM [fluorescent, side channel, full curve, poor fit]"}
{"smiles": "O=C(Nc1ccc(Cl)cc1N1CCOCC1)C1CCCO1", "note": "(centres undefined)", "Potency": "inactive"}
{"smiles": "O=C(NNc1ccccc1[N+](=O)[O-])Nc1ccc(F)cc1", "Potency": "inconclusive: 8.91 µM [quencher, partial curve]"}
{"smiles": "Cc1cc(C(=O)OCC(=O)N2CCOCC2)ccc1[N+](=O)[O-]", "Potency": "inconclusive: 14.1 µM [quencher, side channel, partial curve]"}
{"smiles": "CN(C)CCNc1c2c(c(C#N)c3nc4ccccc4n13)CCCC2", "Potency": "inconclusive: 14.1 µM [quencher, side channel, partial curve]"}
{"smiles": "O=C(Oc1cccc(Nc2ncnc3ccccc23)c1)c1ccccc1Cl", "Potency": "inactive"}
{"smiles": "COc1ccc(S(=O)(=O)Nc2ccc(O)c(Sc3ncn[nH]3)c2)cc1", "Potency": "inactive"}
{"smiles": "CCOC(=O)C1CCN(c2c(Nc3ccc(C)c(C)c3)c(=O)c2=O)CC1", "Potency": "inconclusive: 15.8 µM [quencher, side channel, partial curve]"}
{"smiles": "Cc1ccc2cc(CN(Cc3ccco3)C(=O)NCc3ccccc3)c(=O)[nH]c2c1C", "Potency": "inactive"}
{"smiles": "O=C(C1CCN(S(=O)(=O)c2cccc3nsnc23)CC1)N1CCCc2ccccc21", "Potency": "inconclusive: 15.8 µM [quencher, side channel, partial curve]"}
{"smiles": "CC(C)C(=O)Nc1nc(-c2ccc([N+](=O)[O-])cc2)cs1", "Potency": "inconclusive: 3.16 µM [quencher, full curve]"}
{"smiles": "Cc1cc(C)c(OCCCCNCc2ccccc2)c(Cl)c1", "Potency": "inactive"}
{"smiles": "CC(C)CCn1nnnc1C(c1ccccc1)N1CCC(C(N)=O)CC1", "note": "(centres undefined)", "Potency": "inactive"}
{"smiles": "COc1ccc2c(c1)C=CC1(O2)N(CCO)c2ccccc2C1(C)C", "note": "(centres undefined)", "Potency": "inconclusive: 12.6 µM [quencher, side channel, partial curve]"}
{"smiles": "Cc1ccc(/C=C/C(=O)Nc2cccc3ncccc23)o1", "Potency": "inconclusive: 28.2 µM [quencher, side channel, single point]"}
{"smiles": "CC1(S(=O)(=O)O)CC(=O)c2ccccc2C1=O", "note": "(centres undefined)", "Potency": "inactive"}
{"smiles": "Cc1ccc(C)c(CSc2nnc([C@@H]3CCCN3)o2)c1", "Potency": "inactive"}
{"smiles": "CCNC(=S)Nc1nc2c(cc1C(=O)OCC)CCCC2", "Potency": "inconclusive: 0.141 µM [fluorescent, side channel, full curve, poor fit]"}
{"smiles": "Nc1nnnn1/N=C/c1ccco1", "Potency": "inconclusive: 3.98 µM [quencher, side channel, full curve]"}
{"smiles": "COc1ccc(-n2nc(C(=O)NCC(=O)N3CCN(C)CC3)c3ccccc3c2=O)cc1", "Potency": "inconclusive: 14.1 µM [quencher, side channel, partial curve]"}
{"smiles": "CC(=O)N1CCN(c2ccc(NC(=O)c3ccc(Cl)c([N+](=O)[O-])c3)cc2)CC1", "Potency": "inconclusive: 14.1 µM [quencher, partial curve]"}
{"smiles": "Cc1nc(C)c(/C(O)=C\\c2nc3ccc([N+](=O)[O-])cc3oc2=O)o1", "Potency": "inconclusive: 0.199 µM [quencher, side channel, full curve]"}
{"smiles": "O=C(c1ccc(-n2cccc2)cc1)N1CCN(Cc2ccccc2)CC1", "Potency": "inactive"}
{"smiles": "O=C(c1cc([N+](=O)[O-])ccc1Cl)N1CCN(Cc2ccccc2)CC1", "Potency": "inconclusive: 14.1 µM [quencher, side channel, partial curve]"}
{"smiles": "COc1ccc(C(=O)N/N=C/c2c(CO)cnc(C)c2O)cc1", "Potency": "inconclusive: 31.6 µM [quencher, side channel, single point]"}
{"smiles": "CCCC(=O)OCCNc1cc(SCc2ccco2)c2nonc2c1[N+](=O)[O-]", "Potency": "inconclusive: 12.6 µM [quencher, side channel, partial curve]"}
{"smiles": "CC(=O)NNC(=O)c1sc(=S)n2c1[nH]c(=O)c1sccc12", "Potency": "inconclusive: 31.6 µM [quencher, side channel, single point]"}
{"smiles": "COc1cc(/C(C)=N\\NC(N)=S)cc(OC)c1OC", "Potency": "inactive"}
{"smiles": "COc1ccc(S(=O)(=O)Nc2ccc(-n3cccc3)cc2)cc1", "Potency": "inconclusive: 3.55 µM [quencher, side channel, full curve]"}
{"smiles": "COc1ccc(-c2cc(C(=O)OCC(=O)N(C)C3CCS(=O)(=O)C3)c3ccccc3n2)cc1OC", "note": "(centres undefined)", "Potency": "inconclusive: 10 µM [quencher, side channel, partial curve]"}
{"smiles": "Cc1cc(C)n(/C(=C\\N(C)C)C(=O)c2cccc([N+](=O)[O-])c2)n1", "Potency": "inconclusive: 25.1 µM [quencher, side channel, single point]"}
